Measurements published in the RNAGym collection of RNA variant scans (doi:10.1073/pnas.2313332121).
Variants at the floor of the assay are shown more often than the library holds them.

B1: TPR 5TU (parent)
chain: GGAUCUUCUCGAUCUAACAAAAAAGACAAAUCUGCCACAAAGCUUGAGAGCAUCUUCGGAUGCAGAGGCGGCAGCCUUCGGUGGCGCGAUAGCGCCAACGUUCUCAACUAUGACACGCAAAACGCGUGCUCCGUUGAAUGGAGUUUAUCAUG

Variants of: B1
Test: polymerase ribozyme fitness, log enrichment relative to wild type (log ratio); higher = more active; in vitro selection for triplet polymerase activity
Procedure, shortened: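 Mutant libraries for each subunit of a heterodimeric triplet polymerase ribozyme were made by PCR and then transcribed. Each library underwent one round of in vitro selection in triplicate: annealing with a biotinylated primer, the partner subunit and triplets, frozen incubation at −7 °C, gel excision of extended constructs, streptavidin-bead capture and RT-PCR. Input and output libraries were Illumina-sequenced, and only genotypes with ≥10 input reads and ≥1 read per output were kept. Fitness is the logarithm, base 2, of genotype enrichment over wild-type enrichment, computed from inverse-variance-weighted replicate averages.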

Variant	polymerase ribozyme fitness (log ratio)
A28G A39U U53A G71A C93A	≤ -4.2
A28G A40C C75A G86A	≤ -4.2
A28G A40C G59C C99A U109C	≤ -4.2
A28G A41C C63U C85G G88A U101G U102C A107G	≤ -4.2
A28G A41C G42U A66G C96G G133U U144G	-4.13
A28G A41U A64C A98U G141U G143A	≤ -4.2
A28G A47U G58U	≤ -4.2
A28G A47U U55A G74A C75A C76G G84C	≤ -4.2
A28G A49C C51A A64C A66C C87G U90G	≤ -4.2
A28G A60C G62A A66U G81C G83C G124U A142U A150C	≤ -4.2
A28G A64U C105U A106G A110G	≤ -4.2
A28G A106G U134G	≤ -4.2
A28G A115G G124A	≤ -4.2
A28G C32G U77G C87A C99A C114A	≤ -4.2
A28G C32U A41C C72A A106U G141A G143A	≤ -4.2
A28G C32U G50A C85A	≤ -4.2
A28G C35A G42U G68C C75A U127G G128A	≤ -4.2
A28G C35U A91G	≤ -4.2
A28G C35U G48A G50U C63U G84A C85G G94A U101G U102C U134G U146C	≤ -4.2
A28G C36U U45A A89U C108G	≤ -4.2
A28G C38G U55G G58U	≤ -4.2
A28G C38U U61A G67U C85G A98G	-3.98
A28G C54U C57G U135C	≤ -4.2
A28G C57A C79G A91U C103A A107C	≤ -4.2

Variant	polymerase ribozyme fitness (log ratio)
A28G C57A U61A C76A G88A C93U U102G	≤ -4.2
A28G C57G C85A C118A	≤ -4.2
A28G C57G C93A U135A	≤ -4.2
A28G C72G G84A C129U	≤ -4.2
A28G C103U A115U U146C	≤ -4.2
A28G G34A G68U C87G	≤ -4.2
A28G G42C C43G U56C C85G G92A G124U A150U	≤ -4.2
A28G G42C G50A C54G A73U G126C	≤ -4.2
A28G G48A G58U G83U C125U G126C	≤ -4.2
A28G G50A C75U A91C C93A U109A	≤ -4.2
A28G G50A C75U G92U U109C	≤ -4.2
A28G G50C C75U G88C C93G G100U C118U A137C G143U	≤ -4.2
A28G G50C U56A U82C U102G	≤ -4.2
A28G G50U C93U C99U C123U G136C G141C	≤ -4.2
A28G G81A G83C G84A A106U G136C G152C	≤ -4.2
A28G G84U	-4.02
A28G G84U A98C	≤ -4.2
A28G G88C	≤ -4.2
A28G G92U C108G	≤ -4.2
A28G G94C G100U U134G	≤ -4.2
A28G U33A A40G A120U	≤ -4.2
A28G U33C G42A A52C G83C	≤ -4.2
A28G U45A G48C C87A A107G G136A	≤ -4.2
A28G U53A G84U G140A	≤ -4.2

Variant	polymerase ribozyme fitness (log ratio)
A28U A29C A39C U56A G67A G86A C87U G94U A122U U135C	≤ -4.2
A28U A29G A40G C51G C96G C99G G136C	≤ -4.2
A28U A29G A40G C85G U90G U134G	≤ -4.2
A28U A29G A49U G88C	≤ -4.2
A28U A29U A41U A52C C93A	≤ -4.2
A28U A29U G42A G68C C75A	≤ -4.2
A28U A29U G74C C79G A89C C118A A120U A122G C125G	≤ -4.2
A28U A30G G50A U56A G92C U104G U135G	≤ -4.2
A28U A30U A52G C79A U82C C85A C132U	≤ -4.2
A28U A37C A73G C95G A98U U139A	≤ -4.2
A28U A37C C57G C95U G117U C125G U134G G136A	≤ -4.2
A28U A37C U139C U151G	≤ -4.2
A28U A39C C93U G126C A150G	≤ -4.2
A28U A39U U56A C72U U78G C85U C93U	≤ -4.2
A28U A40C C75U G83U G133A	≤ -4.2
A28U A40G C51A G58A C85A C131A	≤ -4.2
A28U A40U A49C G68U U90G C96U A107G A110C	≤ -4.2
A28U A41C G92C	≤ -4.2
A28U A41G C76A C93G	≤ -4.2
A28U A41U G50C G84A C99G U127C	≤ -4.2
A28U A47C C51A G68U G92A A113U A122G	≤ -4.2
A28U A47C C63G G86C C129A	≤ -4.2
A28U A47G A49C U130G U146G	≤ -4.2
A28U A49C A52C G83U G94C C149A	≤ -4.2

Variant	polymerase ribozyme fitness (log ratio)
A28U A49C C87G A106C C118G U144G	≤ -4.2
A28U A49C C93A A120U	≤ -4.2
A28U A49C C96U G136A	≤ -4.2
A28U A49C G58C	≤ -4.2
A28U A52G C87U C93A U148G U151G	≤ -4.2
A28U A60C G81U C85A C108G G117A	≤ -4.2
A28U A66G G88U A91U	≤ -4.2
A28U A73G U77C C85U	≤ -4.2
A28U A97G A98U U101A C131U A138C	≤ -4.2
A28U A107G U111G	≤ -4.2
A28U C32A A52G C57G G83U C108U	≤ -4.2
A28U C32G G83C C93G A98U A115G	≤ -4.2
A28U C32U A47G C87G U90C C96G C99U A120G	≤ -4.2
A28U C32U G42A A107G C123A	≤ -4.2
A28U C32U G58A C93G A97G U127G A138C	≤ -4.2
A28U C35A C38U G92C	≤ -4.2
A28U C35A C79A C99G	≤ -4.2
A28U C35U A91U C132U	-3.89
A28U C35U C87A A142C	≤ -4.2
A28U C35U G94C A122C	≤ -4.2
A28U C35U U144C	≤ -4.2
A28U C36A C96U U109G	≤ -4.2
A28U C36G C85G G94A C131G	≤ -4.2
A28U C36G C93A C131G	≤ -4.2

Variant	polymerase ribozyme fitness (log ratio)
A28U C38U U55A A60G G83A U102A A122C U151G	≤ -4.2
A28U C43U A52G U55A C79G	≤ -4.2
A28U C43U C57U G94A U146C	≤ -4.2
A28U C51A C85U A115U G143U	≤ -4.2
A28U C54A G92U U127G G141A	≤ -4.2
A28U C54G A91G C99G	≤ -4.2
A28U C54U G70C G88C U104A C123U	≤ -4.2
A28U C54U G92A G117U C123U	≤ -4.2
A28U C54U U56G A66U C87U C93G	≤ -4.2
A28U C57G C63U G81A G88U C105G C114G U145G	≤ -4.2
A28U C57G C76A A107U C114G A120C	≤ -4.2
A28U C57G U78A G83A G128U	≤ -4.2
A28U C63U U82G C95A	≤ -4.2
A28U C69A G83A C105G A115U G143A	≤ -4.2
A28U C69U G133U	≤ -4.2
A28U C69U U139C	≤ -4.2
A28U C72G G86A G133U	≤ -4.2
A28U C75U G86C U134G A142C A147U	≤ -4.2
A28U C76A A89G A120U U139C	≤ -4.2
A28U C76U G83A G92C	≤ -4.2
A28U C79A C87G C96G	≤ -4.2
A28U C79G	≤ -4.2
A28U C85A	-4.11
A28U C85A C93G C96G	≤ -4.2

Variant	polymerase ribozyme fitness (log ratio)
A28U C87A C131G	≤ -4.2
A28U C87G A113U G126U U144C	≤ -4.2
A28U C93G A97G C105A A107G G117A U148A	≤ -4.2
A28U C93U	≤ -4.2
A28U C96U A115C	≤ -4.2
A28U C96U U134A	≤ -4.2
A28U C103A U111C	≤ -4.2
A28U C105A A137C	≤ -4.2
A28U C108U	≤ -4.2
A28U C116U	≤ -4.2
A28U C125G G141C	≤ -4.2
A28U C132G	≤ -4.2
A28U G34U C96A A142C G143A	≤ -4.2
A28U G34U G46A A60C U82G C103U A115C A122U U146A	≤ -4.2
A28U G42A U56A C79G C93A C125G A147G	≤ -4.2
A28U G42C U55A U56A A60C G62A A97U U102A C105G A121G C123G U146G	≤ -4.2
A28U G42U A64G C76A G92U C93U A97C	≤ -4.2
A28U G42U G94C U102A C149G	≤ -4.2
A28U G46A A52C U53C U55A A89C C99G	≤ -4.2
A28U G46A G92C C103G G112A C116U A119U A120U C129G U134G	≤ -4.2
A28U G48C C54U G74U U77A G86U A98U C103G	≤ -4.2
A28U G50A A89G C95A A97C U139C A142U	≤ -4.2
A28U G50A C96G C118G U146C	≤ -4.2
A28U G50C A73U G74A C85U C108A G140U U144C	≤ -4.2

Variant	polymerase ribozyme fitness (log ratio)
A28U G50C C54U C95A A107U G143U	≤ -4.2
A28U G50C U53A A66U C69U C79U G84U G94U G143A	≤ -4.2
A28U G58U A60C C69G G94A A106C	≤ -4.2
A28U G59A C69U C93U A97C	≤ -4.2
A28U G59U G74U C85G A113U C114A U127A	≤ -4.2
A28U G59U G84C C85G U102G A115G	≤ -4.2
A28U G62U A89G A150U	≤ -4.2
A28U G62U G81C C95U C99U U102C U145G	≤ -4.2
A28U G65C G74U U101C A147C	≤ -4.2
A28U G67C U77A U90C C95U C105U A142G	≤ -4.2
A28U G68U C76U C96A	≤ -4.2
A28U G74U C85G C116G G141C	≤ -4.2
A28U G80A A91G C116G	≤ -4.2
A28U G83A C116U U145A	≤ -4.2
A28U G84U U102G A110G C114G U134A	≤ -4.2
A28U G86C C87U C99A C125A U135G	≤ -4.2
A28U G86U U135C	≤ -4.2
A28U G100U A113C	≤ -4.2
A28U G117A C131A A137U	≤ -4.2
A28U G133U	≤ -4.2
A28U U31C U33C G48A G94A	≤ -4.2
A28U U31G A39U A91U C99G C114U	≤ -4.2
A28U U31G C43A C54A A150G	≤ -4.2
